# Measurements reported in PubChem BioAssay AID596 (National Center for Advancing Translational Sciences (NCATS), 2007).
# In all, about 71,000 compounds went through this assay and about 1,400 (2%) were called active. The inconclusive results got no clear call from the source; some entries with a clear call stand among them for comparison. Calls come from the whole dose curve; as a rule, active = well fitted curve in the direction sought with a large enough effect; inconclusive = small, poorly fitted or top-dose-only effect; inactive = no such curve, though single readings can be large or run the other way. A potency beside an inconclusive call is a rough fit, not a confirmed value.
# Biological target: Microtubule-associated protein tau (Homo sapiens) (UniProt P10636)
# Test: qHTS Assay for Tau Filament Binding;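 note: actives lower thioflavin S fluorescence by blocking filaments or displacing dye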
# Conditions: recombinant tau filaments, thioflavin S fluorescence, 15 h, filaments grown with octadecylsulfate alongside compound; series mostly up to 57.1 µM
# How it was run: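 His-tagged recombinant human tau (exons 2, 3, 10; 1 uM final) fibrillized with 30 uM sodium octadecylsulfate, 15 h at 37 C, in pH 7.4 HEPES buffer with 10 uM thioflavine S and 5 mM DTT. Reduced ThS fluorescence (450/510 nm) marks activity.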
# % is set by controls: 0 for no effect and ±100 for the full control effect; potency is the fitted concentration of half-maximal effect.
# UniProt P10636, sequence (P10636 whole entry, looked up): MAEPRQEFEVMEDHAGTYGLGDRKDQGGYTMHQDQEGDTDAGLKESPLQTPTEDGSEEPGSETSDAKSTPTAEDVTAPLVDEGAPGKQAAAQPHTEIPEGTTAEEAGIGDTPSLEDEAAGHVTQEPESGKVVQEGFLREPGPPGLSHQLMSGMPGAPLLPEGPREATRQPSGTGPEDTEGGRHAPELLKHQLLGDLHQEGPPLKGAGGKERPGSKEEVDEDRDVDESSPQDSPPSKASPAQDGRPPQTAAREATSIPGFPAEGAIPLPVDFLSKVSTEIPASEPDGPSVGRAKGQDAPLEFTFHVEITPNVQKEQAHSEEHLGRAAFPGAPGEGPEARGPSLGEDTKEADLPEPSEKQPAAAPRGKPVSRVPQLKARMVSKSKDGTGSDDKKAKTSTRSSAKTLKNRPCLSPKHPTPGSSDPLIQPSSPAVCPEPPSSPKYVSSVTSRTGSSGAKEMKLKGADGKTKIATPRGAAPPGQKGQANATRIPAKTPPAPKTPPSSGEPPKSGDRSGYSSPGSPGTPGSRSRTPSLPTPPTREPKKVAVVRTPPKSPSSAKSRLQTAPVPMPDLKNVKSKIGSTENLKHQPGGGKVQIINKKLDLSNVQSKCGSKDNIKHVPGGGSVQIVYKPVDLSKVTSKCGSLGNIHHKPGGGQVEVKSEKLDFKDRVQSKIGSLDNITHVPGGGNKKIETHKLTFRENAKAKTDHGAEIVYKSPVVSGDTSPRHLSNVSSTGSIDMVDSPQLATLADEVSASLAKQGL
SMILES,Potency,"activity change, negative = inhibition"
CCOC(=O)c1cc2sccc2n1CC(=O)N1CCc2ccccc21,inactive,
COc1ccc(Oc2ncc3nc(-c4cccs4)c(=O)n(C)c3n2)cc1,inconclusive: 5.01 µM [decreasing],
Cc1ccc2c(c1C)NC(C)CC2C (configuration not stated),inconclusive: 25.1 µM [decreasing],
FB(F)F,inactive,
Cc1ccc(-c2nc3ncccn3c2Nc2ccc3c(c2)OCO3)o1,active: 12.6 µM,
COc1ccc(CCn2c(N)c(C(=O)NCc3ccco3)c3nc4ccccc4nc32)cc1OC,inconclusive: 39.8 µM [decreasing],
CCn1c(SCC(=O)Nc2ccc3c(c2)c2ccccc2n3CC)nnc1-c1ccco1,inconclusive: 25.1 µM [decreasing],
O[C@H](CCCN1CCN(c2ncc(F)cn2)CC1)c1ccc(F)cc1,inconclusive: 39.8 µM [decreasing],
COc1cccc(Oc2cn[nH]c2-c2ccc(OC)cc2O)c1,inconclusive: 31.6 µM [decreasing],
CCCc1c(OCCCOc2ccc(OCC(=O)O)cc2)ccc(C(C)=O)c1O,inactive,
CC(=NCc1ccc2c(c1)OCO2)C1=C(O)c2ccccc2C1=O,inconclusive: 31.6 µM [decreasing],
O=S(=O)(c1cccc2c(Cl)cccc12)N1CCCNCC1,inconclusive: 39.8 µM [decreasing],
COc1ccc2[nH]c3nc(SCc4nnc(-c5ccc(C)cc5)o4)nnc3c2c1,inconclusive: 20 µM [decreasing],
N[C@H](C(=O)O)c1cccc(O)c1,inconclusive: 39.8 µM [decreasing],
Cc1ccc(C2=C(Cl)C(=O)C(c3ccc(C)cc3)=C(Cl)C2=O)cc1,,inactive: -2% [at 11.4 µM]
CCc1ccc(N2CSC3=C(C#N)C(c4cccs4)CC(=O)N3C2)cc1 (configuration not stated),inconclusive: 12.6 µM [decreasing],
O=C(OCCN1CCCCC1)c1c[nH]c2ccccc12,inconclusive: 39.8 µM [decreasing],
COc1ccc(S(=O)(=O)Nc2ccc(O)c3ccccc23)cc1,inconclusive: 39.8 µM [decreasing],
CC(C)(C)NS(=O)(=O)c1ccc(OCC(=O)Nc2ccc3c(c2)OCCO3)cc1,inactive,
O=C1C(=C(O)c2ccccc2)C(=O)c2ccccc21,inconclusive: 25.1 µM [decreasing],
C[C@@H]1O[C@@H](OC[C@@H]2O[C@@H](Oc3c(-c4ccc(O)c(O)c4)oc4cc(O)cc(O)c4c3=O)[C@H](O)[C@H](O)[C@@H]2O)[C@H](O)[C@H](O)[C@@H]1O,inconclusive: 39.8 µM [decreasing],
COc1cccc(-c2cc(C(F)(F)F)nc(NCc3ccco3)n2)c1,inactive,
CNCC[C@@H](Oc1ccccc1C)c1ccccc1,inconclusive: 39.8 µM [decreasing],
Cc1ccc(CNC(=O)CS(=O)Cc2nc(-c3ccccc3C)oc2C)cc1 (configuration not stated),inactive,
O=C(Nc1ccc2c(c1)OCCO2)C1CCN(S(=O)(=O)c2cccs2)CC1,inactive,
COc1ccc(C(c2nnnn2Cc2ccc(F)cc2)N2CCN(c3ccc(OC)cc3)CC2)cc1 (configuration not stated),active: 10 µM,

SMILES,Potency,"activity change, negative = inhibition"
CCOc1ncccc1C(=O)OCc1ccc(C(=O)OC)o1,inactive,
COc1ncc2nc(-c3cc(F)cc(F)c3)c(=O)n(-c3ccccc3)c2n1,inconclusive: 3.98 µM [decreasing],
C=C(CO)[C@H]1Cc2c(ccc3c(=O)c4c(oc23)COc2cc(OC)c(OC)cc2-4)O1,active: 31.6 µM,
COc1cccc(-c2nccc(NCCc3c[nH]c4ccc(OC)cc34)n2)c1,active: 25.1 µM,
O=C(Cn1nnc2c(cnn2-c2ccccc2)c1=O)N1CCN(c2ccccc2F)CC1,inconclusive: 31.6 µM [decreasing],
CC1=CC(=O)c2ccccc2C1=O,inconclusive: 15.8 µM [decreasing],
Cc1ccc(C(=O)Nc2nc3c(s2)CCCC3)o1,inactive,
CCOC(=O)c1c(C)oc2c1c(C(c1ccncc1)N1CCOCC1)c(O)c1ccccc12 (configuration not stated),active: 12.6 µM,
COC(=O)[C@@]1(Cc2ccc(OC)cc2)[C@H]2c3cc(C(=O)N(C)C)n(Cc4ccsc4Br)c3C[C@H]2CN1C(=O)c1ccccc1,inactive,
O=c1ccn(Cc2ccccc2)c(=O)n1Cc1ccccc1,inactive,
COc1ccc(N2CCn3c2nc2c3c(=O)n(CCCc3ccccc3)c(=O)n2C)c(OC)c1,inactive,
CN(C)c1ccc(NC(=O)CN2CCN(CC(=O)Nc3ccc(F)cc3)CC2)cc1,inactive,
CNCCCCOc1ccccc1Cc1ccccc1,inconclusive: 31.6 µM [decreasing],
CC(=O)Oc1cc2c(C(=O)NCCCN3CCOCC3)c(C)oc2c2ccccc12,inconclusive: 25.1 µM [decreasing],
N[C@](CC1c2ccccc2Oc2ccccc21)(C(=O)O)[C@@H]1C[C@@H]1C(=O)O,inconclusive: 39.8 µM [decreasing],
Cc1ccc(S(=O)(=O)N2CCC(C(=O)N[C@@H](C)C(=O)Nc3ccc4c(c3)OCO4)CC2)cc1,active: 10 µM,
O=S(=O)(O)c1cc(O)c2c(O)c(N=Nc3cccc4ccccc34)c(S(=O)(=O)O)cc2c1,inconclusive: 3.98 µM [decreasing],
COc1ccccc1CCn1c(=O)c(-c2cccc(F)c2)nc2cncnc21,inconclusive: 25.1 µM [decreasing],
N=C(N)SCCN,inconclusive: 39.8 µM [decreasing],
O=C(Nc1cccc2cccnc12)[C@@H]1[C@@H](C(=O)O)[C@H]2CC[C@@H]1O2,,inactive: 3.4% [at 11.4 µM]
Cn1nnnc1SCC(=O)N1CCN(Cc2ccccc2)CC1,inconclusive: 3.16 µM [decreasing],
N#Cc1c(/N=C/c2ccco2)sc2c1CCCCC2,active: 15.8 µM,
Cc1ccccc1-c1ccc2ncnc(NCc3cccnc3)c2c1,inactive,
CC(C)OC(=O)C(C#N)c1nc2ccccc2nc1N1CCN(Cc2ccccc2)CC1 (configuration not stated),inconclusive: 0.794 µM [decreasing],
O=C(c1csnn1)N1CCC2(CC1)CN(c1cccc(-c3ccccc3)c1)C2,inactive,
COc1cc(C(=O)Oc2c(CN3CCOCC3)cc(Cl)c3cccnc23)cc(OC)c1OC,inconclusive: 10 µM [decreasing],
